# From article PMC5388433
# Protein sequences, listed by entry. Tags and fused reporters are not part of them.
# UniProt P45973: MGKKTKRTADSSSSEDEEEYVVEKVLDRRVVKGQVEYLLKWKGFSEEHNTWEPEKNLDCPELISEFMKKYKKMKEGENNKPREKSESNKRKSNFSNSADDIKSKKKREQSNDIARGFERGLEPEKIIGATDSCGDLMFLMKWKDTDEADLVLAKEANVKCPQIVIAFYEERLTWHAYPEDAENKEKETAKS
# Results are given in words; binding and its absence hold for the method and conditions named.
# Biological target: T1, KDM2A_(543-811) V801A/L803A (human) (UniProt Q9Y2K7)
# T1 sequence: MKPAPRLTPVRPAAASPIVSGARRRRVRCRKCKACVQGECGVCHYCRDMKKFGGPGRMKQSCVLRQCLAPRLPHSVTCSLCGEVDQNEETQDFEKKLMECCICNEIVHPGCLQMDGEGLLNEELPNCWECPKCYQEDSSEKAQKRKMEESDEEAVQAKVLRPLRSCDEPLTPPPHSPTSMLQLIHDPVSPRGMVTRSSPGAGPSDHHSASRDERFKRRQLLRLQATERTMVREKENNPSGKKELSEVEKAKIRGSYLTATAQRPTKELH
# Experiment: pull-down; nucleosomes (2.5 μg octamer, biotinylated 601-DNA) immobilised on streptavidin beads, incubated with 2.5 μg WT or mutant HP1α and/or 2.5 μg KDM2A_(543-811) (WT or V801A/L803A) in 1 ml binding buffer; immunoblot; both purified
substance,measurement,value
recombinant purified HP1α (WT) (from UniProt P45973 1-191),binding,no binding
